Data as given in US20200299366A1 (SHANGHAITECH UNIVERSITY, published 2020).
Ends that are not written are not given here.

How the values were obtained:
[1] = molecular target: T1, Cx26 polypeptide antigen (KEVWGDEQADFVCNTL, amino acids 41-56 of the extracellular region of human Connexin … (human, also: biotinylated, position not given here)); experiment: SPR, multi cycle kinetics: scFv II-Fc captured as ligand by anti-human IgG on a CM5 chip, antigenCB peptide as analyte
T1 construct: also called biotinylated antigen polypeptide; peptide antigen CB
T1 peptide: KEVWGDEQADFVCNTL
Experimental: 1. Octet RED instrument and its detection chip (CM5 chip) was purchased from Pall Corporation. 2. Anti-human IgG antibody was purchased from Thermo Scientific.
The affinity and kinetics of the antibody and the antigen were detected by the method of multi cycle kinetics. Immobilization of the antibody was performed by capture method. First, the anti-human IgG antibody was coupled to the CM5 chip, and then the Anti-Cx26-scFv II-Fc antibody sample flowed through the chip surface after being serial diluted. The antibody to be detected was then captured by the coupled anti-human Fc antibody. Then the polypeptide antigen (synthesized by Nanjing Genscript Co. Ltd, sequence: Seq ID NO: 5) was added, the antigen was bound with the antibody, and the signal was detected and recorded. Finally, the antibody and the antigen samples on the CM5 chip surface were eluted by regeneration reagent (glycine solution, pH1.7) for a new round of testing.

[2] = molecular target: human Cx26 protein expressed from the Cx26-Venus-YFP plasmid on HeLa DH cells (human, UniProt P29033); experiment: cell-based or functional assay

B1: Anti-Cx26-scFvII-Fc (Fc fusion)
chain: MAQVQLQQSGGGVVQPGRSLRLSCAASGFTFSSYAMHWVRQAPGKGLEWVAVISHGGSNKYYADSVKGRFTISRDNSKNTLYLQMNSLRAEDTAVYYCARDFSWRGYYMDVWGKGTLVTVSSGSGGGGSETTLTQSPATLSLSPGERATLSCRASQSISSYLAWYQQKPGQAPRLLIYGASTRATGIPDRFSGSGSGTDFTLTISRLEPEDFAVYYCQQYGSSPRTFGGGTKVEIKRGLGGPMVRS[skipping human IgG1 Fc]
notes: also called Anti-Cx26-scFv II-Fc antibody; scFv II-Fc antibody
B1 was tested, and the koff [1] was 0.00422 s⁻¹, the kon [1] was 57900 M⁻¹ s⁻¹ and the “Cx26 hemichannel activity (whole cell patch clamp hemichannel current, 940 nM antibody against 100 uM Zn2+)” value [2] was 100 fold.
